# Data taken from PubChem BioAssay AID1240 (Sanford-Burnham Center for Chemical Genomics, 2008).
# The campaign covered roughly 50,000 compounds. About 800 (1.6%) showed an effect of 50% or more. Some of the results follow.
# Target: Bcl-2-like protein 10 (Homo sapiens) (UniProt Q9HD36)
# Assay: TR3 peptide-Bcl-B binding displacers, biochemical primary FP assay, phenotype converters (AID 1240);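 further: 0% = Bcl-B with tracer peptide and DMSO and 100% = tracer peptide lacking Bcl-B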
# Conditions: GST-Bcl-B / FITC-TR3 peptide fluorescence polarization; stronger effect = higher value; compound at 3.75 mg/L
# UniProt Q9HD36, sequence (Q9HD36 whole entry, looked up): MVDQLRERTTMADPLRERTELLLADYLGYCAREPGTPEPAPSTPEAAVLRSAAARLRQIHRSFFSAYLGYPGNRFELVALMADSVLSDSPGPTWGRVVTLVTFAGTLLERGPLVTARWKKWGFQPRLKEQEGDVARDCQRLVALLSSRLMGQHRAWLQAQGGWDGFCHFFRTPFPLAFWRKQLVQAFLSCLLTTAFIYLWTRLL
row,SMILES,displacement
1,N/C(=N\c1nc2ccccc2o1)NC(=O)c1ccc(F)cc1,1.4%
2,COc1ccc(NC(=O)C(=O)NCCN2CCN(C(=O)c3ccc(C)cc3)CC2)cc1,10%
3,CCN1C(=O)/C(=C\c2cc(Br)c(OCc3ccc(F)cc3)c(OC)c2)SC1=S,1.7%
4,Cc1nc(=S)c2cnn(-c3ccccc3)c2[nH]1,-6.5%
5,CC(C)N(C(=O)c1ccc(C(=O)NCc2ccc(S(N)(=O)=O)cc2)cc1)C(C)C,-2.3%
6,O=[N+]([O-])c1cccc(Cl)c1N1CCOCC1,3.9%
7,O=C1CC(c2ccccc2)CC2=C1C(c1cc([N+](=O)[O-])ccc1Cl)Nc1ccccc1N2 (stereo not given),9.5%
8,O=C(CSc1nnnn1-c1ccccc1)NC1CCCC1,-7.6%
9,O=C(NCc1ccc2c(c1)OCO2)c1cccc(F)c1,-14.6%
10,COC(=O)c1ccccc1-c1ccc(/C=c2\sc3nc4ccccc4n3c2=O)o1,24.5%
11,COc1ccc(NC(=O)c2ccc(CN3CCOCC3)cc2)cc1OC,5.9%
12,Cc1nnc(Nc2cccc(Nc3nnc(C)c4ccccc34)c2)c2ccccc12,4.6%
13,Cc1ccccc1N1C(=O)C(O)=C(C(=O)/C=C/c2ccccc2)C1c1ccc(Br)cc1 (stereo not given),7.6%
14,O=C(N/N=C/c1cccc(O)c1)C(=O)N1CCCCCC1,-6.1%
15,O=P1(C(Nc2ccc(O)cc2)c2ccc(Br)cc2)OCCCO1 (stereo not given),11.9%
16,COc1ccc(NC(=O)c2cccc(Oc3ccccc3)c2)cc1OC,7%
17,Cc1nc2ccccc2c2c1C(=O)N(c1cccc(O)c1)C2=O,-9.5%
18,O=S(=O)(Nc1cccnc1)c1cc(Cl)c(Cl)cc1Cl,-17.1%
19,O=C1CC(Sc2ccc(Br)cc2)C(=O)N1c1ccccc1 (stereo not given),-3.5%
20,CC(=O)c1ccc(NC(=O)CN(c2ccccc2)S(=O)(=O)c2ccccc2[N+](=O)[O-])cc1,11.6%
21,CCc1ccc(-n2nc(C)c3c(C)cc(=O)oc32)cc1,6.9%
22,CCCc1c(C)c2ccccc2[nH]c1=O,11.2%

row,SMILES,displacement
1,CCOC(=O)c1c(C)oc2ccc(OCc3ccccc3F)cc12,12.9%
2,COc1ccc(NC(=O)CSc2nc(-c3ccccc3)c(-c3ccccc3)o2)cc1,10.7%
3,CCOC(=O)C1=C(C)N=c2s/c(=C\c3ccc(C(C)=O)c(OC)c3)c(=O)n2C1c1ccccc1 (stereo not given),4.5%
4,Cc1ccc(C(=O)N/C(=C/c2cccnc2)C(=O)NN)cc1,-8.7%
5,CCC1=NN2C(=N)/C(=C/c3ccc(-c4ccc([N+](=O)[O-])cc4C)o3)C(=O)N=C2S1,14%
6,O=C(OC/C=C/c1ccccc1)C(C(F)(F)F)C(F)(F)F,3.9%
7,CCOC(=O)C1=C(N)OC2=C(C(=O)CC(C)(C)C2)C1c1ccc(Cl)cc1Cl (stereo not given),5.6%
8,O=C1SC(Nc2ccc(Br)cc2)C(=O)N1c1ccccc1 (stereo not given),-1.7%
9,N#Cc1c(-c2ccco2)c2c([nH]c1=S)CCCC2,-5%
10,OC(COc1cccc(OCC(O)CN2CCOCC2)c1)CN1CCOCC1 (stereo not given),-2.2%
11,O=C(Nc1ccc(Cl)c(Cl)c1)C1CC(=O)N(c2cccc([N+](=O)[O-])c2)C1 (stereo not given),6.6%
12,O=C(O)CCCN1C(=O)C(=O)/C(=C(\O)c2ccc(Cl)cc2)C1c1ccccc1 (stereo not given),0.5%
13,COc1ccc(/C(C)=N\N=C2/NC(=O)C(Cc3ccc(C)cc3)S2)cc1 (stereo not given),7.5%
14,COc1cc(CN2CCN(C(=O)c3ccccc3F)CC2)cc(OC)c1O,-9.6%
15,O=C1N=c2ccc(Br)cc2=C1c1sc(=O)n(-c2ccc(O)cc2)c1O,4.6%
16,CS(=O)(=O)N1CCN(c2ccc([N+](=O)[O-])c3cccnc23)CC1,-2.6%
17,COC(=O)NNC(=O)c1ccc(OC)c(OC)c1,-6.7%
18,Cc1ccc(CSc2nc(N)c3c4c(sc3n2)CCC4)c(C)c1,-6.8%
19,Cc1ccc(C(=O)N/C(=C\c2cccc(Br)c2)C(=O)N2CCCCC2)cc1,14.4%
20,O=C(Cc1ccccc1)Nc1ccc(Br)cc1C(=O)O,0%
21,CN1CCN(C(=O)c2ccc(-c3ccccc3)cc2)CC1,-6.3%
22,O=C(O)c1c[nH]c2c(ccc3ccccc32)c1=O,-0.7%

row,SMILES,displacement
1,O=C(CCNc1ccc2c(c1)oc1ccccc12)c1ccc(Br)cc1,-11.5%
2,O=C(Nc1ccc(Br)cn1)c1cccc(Cl)c1Cl,-8.4%
3,CCOc1cc(OCC)cc(C(=O)Nc2ccc3oc(-c4ccc(OC)cc4)nc3c2)c1,4.2%
4,CCN(CC)c1ccc(N/C(N)=N/c2nc(C(F)(F)F)cc(=O)[nH]2)cc1,8.3%
5,COc1ccc(C(=O)N2CCN(Cc3cc(OC)c(OC)cc3OC)CC2)cc1,4%
6,O=C1CN(S(=O)(=O)c2ccc3ccccc3c2)CC(=O)N1,-1.2%
7,COc1ccc(S(=O)(=O)N2CCN(Cc3ccccc3C)CC2)cc1,-9.8%
8,O=C(CC1S/C(=N\N=C\c2cccc(O)c2)NC1=O)Nc1ccc(Cl)c(Cl)c1 (stereo not given),13.2%
9,CC(Oc1cccc(Cl)c1)C(=O)NCc1ccncc1 (stereo not given),-7.2%
10,CC1=C(C(=O)OC2CCCC2)C(c2ccc(Br)cc2)NC(=O)N1 (stereo not given),7%
11,COc1ccc(C2CC(c3cccs3)=NN2c2ccc(C=O)cc2)cc1 (stereo not given),17.4%
12,C/C(=N\NS(=O)(=O)c1ccc([N+](=O)[O-])cc1)c1ccc(NC(=O)c2ccco2)cc1,0%
13,CCc1cc(C)cc(OCCn2cc(/C=C3/SC(=S)N(C)C3=O)c3ccccc32)c1,123%
14,COc1ccc(/C=C2/SC(=Nc3ccc(O)cc3)NC2=O)cc1,-15.9%
15,CC(C)c1ccc(N2C(=O)NC(=O)/C(=C/c3cccc([N+](=O)[O-])c3)C2=O)cc1,13.3%
16,Clc1ccccc1CN1CCN(Cc2ccncc2)CC1,-26.7%
17,CC1=C(C(=O)OC2CCCCC2)C(c2ccc(Br)cc2)NC(=O)N1 (stereo not given),17.5%
18,COc1cc(NC(=O)COc2ccc(Cl)cc2Br)cc(OC)c1,-12.1%
19,CCOc1ccccc1NC(=O)c1c(NC(=O)Cc2ccc(OC)cc2)sc2c1CCCC2,1.8%
20,Oc1ccc(Nc2nc3nonc3nc2Nc2ccccc2)cc1,-9.7%
21,COc1ccc(C=C2C(=O)c3ccccc3C2=O)c(OC)c1,181%
22,O=C1C(=O)N(c2ccc(Cl)cc2)C(=O)N1Cc1ccccc1,16.9%

row,SMILES,displacement
1,COC(=O)CN(c1ccccc1)S(=O)(=O)c1ccccc1[N+](=O)[O-],9.9%
2,O=C(N/N=C/c1cccc(Cl)c1Cl)c1ccc(Cl)c(Cl)c1,5.8%
3,COc1ccccc1N(CC(O)CN1CCCCC1)S(=O)(=O)c1ccccc1 (stereo not given),-1.1%
4,CCOC(=O)c1sc(NC(=O)c2ccc(C)c([N+](=O)[O-])c2)c(C(=O)OCC)c1C,13.5%
5,CCOC(=O)CC(C(=O)OCC)P(=O)(c1ccccc1)c1ccccc1 (stereo not given),2.7%
6,CC(=O)Nc1ccc(N=Cc2ccc([N+](=O)[O-])s2)cc1,-2.9%
7,COc1ccccc1C(=O)N1CCN(C(=O)c2cccs2)CC1,-8.4%
8,CCOC(=O)c1c(C)n(-c2ccccc2)c2ccc(O)c(CN(C)C)c12,17.3%
9,COC(=O)C(NC(=O)c1cccc(Cl)c1)C12CC3CC(CC(C3)C1)C2 (stereo not given),-0.3%
10,CC(C)OC(=O)C1C(=O)CC(C)(O)C(C(=O)OC(C)C)C1c1ccc(Cl)cc1 (stereo not given),4.9%
11,COc1cccc(C(=O)/C=C/c2ccc3c(c2)OCO3)c1,-5.8%
12,COc1ccc(C2(CNC(=O)C3(c4ccccc4)CCCC3)CCCC2)cc1OC,-15.1%
13,CCCc1nc2c(nnn2Cc2ccccc2)c(=O)[nH]1,10.1%
14,O=C(Nc1ccc(NS(=O)(=O)c2ccccc2)cc1)c1ccco1,0.4%
15,O=C(NCCO)c1ccc(Oc2ccc(C(=O)NCCO)cc2)cc1,1.9%
16,Cc1ccc(-c2cc(CC(C)C)nc(N)c2C#N)cc1,-6.3%
17,CCOC(=O)C1=C(N)Oc2cc(O)ccc2C1c1ccc(Cl)cc1 (stereo not given),-54.9%
18,Cc1ccc(NC2CC(=O)N(c3ccccc3)C2=O)cc1 (stereo not given),9.6%
19,CC(=O)N1CCN=C1Nc1c(Cl)cccc1Cl,8.3%
20,CN1CCN(NC(=S)Nc2ccc(F)cc2)CC1,-1%
21,CCSc1nc2ccccc2n1C(=O)/C=C/c1ccc(OC)c(OC)c1,11.3%
22,C=C(NC(C)=O)C(=O)c1ccc([N+](=O)[O-])cc1,18.9%

row,SMILES,displacement
1,Cc1cc(C)cc(NC(=O)c2ccccc2Cl)c1,-0.9%
2,O=[N+]([O-])c1cccc(-c2noc(C34CC5CC(CC(C5)C3)C4)n2)c1,-5.9%
3,Cc1ccc(C(O)(c2ccccc2)c2cnc(C(C)C)n2C)cc1 (stereo not given),-11.1%
4,COc1c(Cl)ccc(Cl)c1C(=O)Nc1ccc(I)cc1,-9.5%
5,CCCCOC(=O)c1ccc(NC(=O)CSc2nc3ccccc3o2)cc1,2.5%
6,C#Cc1cccc(NC(=O)c2ccc(-c3ccccc3)cc2)c1,-1.7%
7,CC(C)N1CCc2c(sc3nc(SCc4ccc(Cl)cc4)n(Cc4ccccc4)c(=O)c23)C1,19.2%
8,COc1ccc(C(=O)Nc2nnc(-c3ccco3)s2)cc1,-0.9%
9,O=C(Nc1ccc(Cl)c(Cl)c1)Nc1nnc(Cc2cccc(Br)c2)s1,4.5%
10,O=C(/C=C/c1ccc(-c2ccccc2)o1)c1ccc(F)cc1,54.3%
11,N#C/C(=N\Nc1ccccc1F)c1nc(-c2ccccc2)cs1,7.2%
12,Cc1ccc(NC(=O)Cn2c(-c3nonc3N)nc3ccccc32)cc1F,-1.2%
13,COc1ccc(-c2cc(=O)n3[nH]c(-c4ccccc4)c(C)c3n2)cc1,6.1%
14,C(=N\N1CCN(c2ccccc2)CC1)/c1ccc(-c2ccccc2)cc1,-8%
15,Cc1ccc2nsnc2c1NC(=O)c1cccc(Br)c1,-0.7%
16,Cc1ccc(OCC(=O)NCc2ccccn2)c(Br)c1,-8.7%
17,CCOC(=O)c1c(NC=O)sc2c1CCC2,-2.1%
18,COc1ccc(C2CC(=O)C3=C(C2)Nc2ccccc2NC3c2cc(F)ccc2F)cc1 (stereo not given),-6%
19,Cc1cccc(C)c1NC(=O)c1ccc(I)cc1,9.3%
20,CC1=C(C(=O)OC(C)C)C(c2cccc(Br)c2)C2=C(CCCC2=O)N1 (stereo not given),4.4%
21,NC(=O)N/N=C(\C=C\c1ccccc1)C1(O)CCCCC1,-5.9%
22,COc1ccc(Cc2noc(-c3ccc(C)cc3)n2)cc1,-6.9%
